# Source: the supplement of paper PMC8728848
# The list shows a part of the results.
# B1: Epa3to1 (Candida glabrata) (protein)
# chain: MGSSHHHHHHSSGLVPRGSHMKRELSSQNPFGYPIGCSPQDVAIIPGLTMELYSYPIVSGTPPNCYDASYVDPEYPRTGYLKRKMVGKSTGVTGNLNYKYSVEKACMVKYGNLPAGYNYNEPLTVSNFTMILYGYFKAQTTGLHTFFVNADDLLYINFGAGNAFDCCKREDSKTKLGEYVAYDIWHVDSSKNKVSLFLEKDLYYPIRMFFNNREYDSSLDLSFSVNGATDQISDFSGYLYSVPDQPDTCPAHIGYDTTCR
# Experiments:
# Test in all cases: glycan array binding signal (z-score within array); higher = stronger binding
# Conditions in all cases: glycan notation: IUPAC condensed, linker removed
# Gal(a1-3)Gal(b1-3)GlcNAc = target: Gal(a1-3)Gal(b1-3)GlcNAc
# Outline: (§1)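 Arrays were curated from the Consortium for Functional Glycomics database, 3228 in total, and kept only where the protein sequence was available. Binding is expressed as a within-array Z-score. This score was averaged across arrays of the same protein sequence at different concentrations or buffers and across linkers, and negative values can be read as non-binding.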
# [1] = target: Gal(a1-3)Gal(b1-3)GlcNAc(b1-2)Man
# Outline: as §1
# [2] = target: Gal(a1-3)Gal(b1-3)GlcNAc(b1-2)Man(a1-3)[Gal(a1-3)Gal(b1-3)GlcNAc(b1-2)Man(a1-6)]Man(b1-4)GlcNAc(b1-4)GlcNAc
# Outline: as §1
# [3] = target: Gal(a1-3)Gal(b1-3)GlcNAc(b1-3)GalNAc
# Outline: as §1
# [4] = target: Gal(a1-3)Gal(b1-3)GlcNAc(b1-6)GalNAc
# Outline: as §1
# [5] = target: Gal(a1-3)Gal(b1-3)[Fuc(a1-4)]GlcNAc(b1-2)Man(a1-3)[Gal(a1-3)Gal(b1-3)[Fuc(a1-4)]GlcNAc(b1-2)Man(a1-6)]Man(b1-4)GlcNAc(b1-4)GlcNAc
# Outline: as §1
# Gal(a1-3)Gal(b1-4)Glc = target: Gal(a1-3)Gal(b1-4)Glc
# Outline: as §1
# Gal(a1-3)Gal(b1-4)GlcNAc = target: Gal(a1-3)Gal(b1-4)GlcNAc
# Outline: as §1
# [6] = target: Gal(a1-3)Gal(b1-4)GlcNAc(b1-2)Man
# Outline: as §1
# [7] = target: Gal(a1-3)Gal(b1-4)GlcNAc(b1-2)Man(a1-3)[Gal(a1-3)Gal(b1-4)GlcNAc(b1-2)Man(a1-6)]Man(b1-4)GlcNAc(b1-4)GlcNAc
# Outline: as §1
# [8] = target: Gal(a1-3)Gal(b1-4)GlcNAc(b1-3)GalNAc
# Outline: as §1
# [9] = target: Gal(a1-3)Gal(b1-4)GlcNAc(b1-6)GalNAc
# Outline: as §1
# [10] = target: Gal(a1-3)Gal(b1-4)[Fuc(a1-3)]GlcNAc
# Outline: as §1
# [11] = target: Gal(a1-3)Gal(b1-4)[Fuc(a1-3)]GlcNAc(b1-2)Man(a1-3)[Gal(a1-3)Gal(b1-4)[Fuc(a1-3)]GlcNAc(b1-2)Man(a1-6)]Man(b1-4)GlcNAc(b1-4)GlcNAc
# Outline: as §1
# Gal(a1-3)GalNAc = target: Gal(a1-3)GalNAc
# Outline: as §1
# [12] = target: Gal(a1-3)[Gal(a1-4)]Gal(b1-4)GlcNAc
# Outline: as §1
# [13] = target: Gal(a1-4)Gal(b1-3)GlcNAc(b1-2)Man(a1-3)[Gal(a1-4)Gal(b1-3)GlcNAc(b1-2)Man(a1-6)]Man(b1-4)GlcNAc(b1-4)GlcNAc
# Outline: as §1
# Gal(a1-4)Gal(b1-4)Glc = target: Gal(a1-4)Gal(b1-4)Glc
# Outline: as §1
# Gal(a1-4)Gal(b1-4)GlcNAc = target: Gal(a1-4)Gal(b1-4)GlcNAc
# Outline: as §1
# [14] = target: Gal(a1-4)Gal(b1-4)GlcNAc(b1-2)Man(a1-3)[Gal(a1-4)Gal(b1-4)GlcNAc(b1-2)Man(a1-6)]Man(b1-4)GlcNAc(b1-4)GlcNAc
# Outline: as §1
# [15] = target: Gal(a1-4)Gal(b1-4)GlcNAc(b1-3)Gal(b1-4)Glc
# Outline: as §1
# Gal(a1-4)GlcNAc = target: Gal(a1-4)GlcNAc
# Outline: as §1
# Gal(a1-6)Glc = target: Gal(a1-6)Glc
# Outline: as §1
# Gal(b1-2)Gal = target: Gal(b1-2)Gal
# Outline: as §1
# Gal(b1-3)Gal = target: Gal(b1-3)Gal
# Outline: as §1
# Gal(b1-3)Gal(b1-4)GlcNAc = target: Gal(b1-3)Gal(b1-4)GlcNAc
# Outline: as §1
# Gal(b1-3)GalNAc = target: Gal(b1-3)GalNAc
# Outline: as §1
# [16] = target: Gal(b1-3)GalNAc(a1-3)[Fuc(a1-2)]Gal(b1-4)Glc
# Outline: as §1
# [17] = target: Gal(b1-3)GalNAc(a1-3)[Fuc(a1-2)]Gal(b1-4)GlcNAc
# Outline: as §1
# Gal(b1-3)GalNAc(b1-3)Gal = target: Gal(b1-3)GalNAc(b1-3)Gal
# Outline: as §1
# [18] = target: Gal(b1-3)GalNAc(b1-3)Gal(a1-4)Gal(b1-4)Glc
# Outline: as §1
# [19] = target: Gal(b1-3)GalNAc(b1-4)Gal(b1-4)Glc
# Outline: as §1
# [20] = target: Gal(b1-3)GalNAc(b1-4)[Neu5Ac(a2-3)]Gal(b1-4)Glc
# Outline: as §1
# Gal(b1-3)GlcNAc = target: Gal(b1-3)GlcNAc
# Outline: as §1
# [21] = target: Gal(b1-3)GlcNAc(a1-3)Gal(b1-4)GlcNAc
# Outline: as §1
# [22] = target: Gal(b1-3)GlcNAc(a1-6)Gal(b1-4)GlcNAc
# Outline: as §1
# Gal(b1-3)GlcNAc(b1-2)Man = target: Gal(b1-3)GlcNAc(b1-2)Man
# Outline: as §1
# [23] = target: Gal(b1-3)GlcNAc(b1-2)Man(a1-3)[Gal(b1-3)GlcNAc(b1-2)Man(a1-6)]Man(b1-4)GlcNAc(b1-4)GlcNAc
# Outline: as §1
binder,measurement,setting,value
B1,glycan array binding signal (z-score),Gal(a1-3)Gal(b1-3)GlcNAc,0.136
same,glycan array binding signal (z-score),[1],1.23
same,glycan array binding signal (z-score),[2],0.169
same,glycan array binding signal (z-score),[3],-0.594
same,glycan array binding signal (z-score),[4],1.36
same,glycan array binding signal (z-score),[5],-0.283
same,glycan array binding signal (z-score),Gal(a1-3)Gal(b1-4)Glc,0.115
same,glycan array binding signal (z-score),Gal(a1-3)Gal(b1-4)GlcNAc,0.851
same,glycan array binding signal (z-score),[6],-0.341
same,glycan array binding signal (z-score),[7],0.176
same,glycan array binding signal (z-score),[8],1.25
same,glycan array binding signal (z-score),[9],0.248
same,glycan array binding signal (z-score),[10],-0.405
same,glycan array binding signal (z-score),[11],-0.206
same,glycan array binding signal (z-score),Gal(a1-3)GalNAc,-0.338
same,glycan array binding signal (z-score),[12],0.151
same,glycan array binding signal (z-score),[13],0.42
same,glycan array binding signal (z-score),Gal(a1-4)Gal(b1-4)Glc,0.093
same,glycan array binding signal (z-score),Gal(a1-4)Gal(b1-4)GlcNAc,0.776
same,glycan array binding signal (z-score),[14],-0.043
same,glycan array binding signal (z-score),[15],0.497
same,glycan array binding signal (z-score),Gal(a1-4)GlcNAc,3.41
same,glycan array binding signal (z-score),Gal(a1-6)Glc,1.7
same,glycan array binding signal (z-score),Gal(b1-2)Gal,-0.134
same,glycan array binding signal (z-score),Gal(b1-3)Gal,1.72
same,glycan array binding signal (z-score),Gal(b1-3)Gal(b1-4)GlcNAc,2.23
same,glycan array binding signal (z-score),Gal(b1-3)GalNAc,0.802
same,glycan array binding signal (z-score),[16],0.727
same,glycan array binding signal (z-score),[17],-0.289
same,glycan array binding signal (z-score),Gal(b1-3)GalNAc(b1-3)Gal,2.16
same,glycan array binding signal (z-score),[18],1.5
same,glycan array binding signal (z-score),[19],5.3
same,glycan array binding signal (z-score),[20],1.56
same,glycan array binding signal (z-score),Gal(b1-3)GlcNAc,-0.531
same,glycan array binding signal (z-score),[21],-0.354
same,glycan array binding signal (z-score),[22],0.409
same,glycan array binding signal (z-score),Gal(b1-3)GlcNAc(b1-2)Man,-0.013
same,glycan array binding signal (z-score),[23],1.14
